Reference: PubChem BioAssay AID1347417 (National Center for Advancing Translational Sciences (NCATS), 2020)
Out of some 120,000 compounds screened, about 5,300 (4.4%) were called active. This list was built around the results that the source calls inconclusive (neither active nor inactive); the mix of calls is not that of the screen. The call rests on the fitted dose curve; in most records, active means well fitted inhibition curve with a large enough effect; inconclusive means small, poorly fitted or top-dose-only effect; inactive means no such curve, though single readings can be large or run the other way. A potency beside an inconclusive call is a rough fit, not a confirmed value.

Assay: qHTS Primary assay for Inhibitors of Plasmodium falciparum Dd2 growth in vitro; further: nearly all actives have a fitted effect of over 65% in size;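 on activity, negative = inhibition: plate controls were DMSO vehicle for no effect and reference drug for full effect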
Conditions: P. falciparum Dd2 growth, SYBR Green, 72 h; activity, negative = inhibition: at 28.9 µM (top of the series) unless noted; series mostly up to 28.9 µM
In short: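 Infected erythrocytes (Dd2, 0.3% parasitemia, 2.5% hematocrit final) are added to compound in RPMI-1640/Albumax II medium, grown 72 h at 37C in low oxygen, then lysed with saponin/Triton-X containing SYBR Green and read by fluorescence.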
Potency means the concentration at half of the fitted maximal effect; tags describe the fitted curve by direction and shape.

Compound	Potency	activity, negative = inhibition
CCc1ccc(C(=O)N2CCC(c3cc(-c4cccc(OC)c4)n[nH]3)CC2)cc1	inconclusive: 10 µM [inhibitor, single point]	–
CN(C)c1cccc(Nc2cc3c(cn2)CN(Cc2ccccc2)CCN3)c1	inconclusive: 2 µM [inhibitor, full curve, poor fit]	–
Cc1ccc2nc(-c3c[nH]c4ccccc34)c(Nc3ccc(F)cc3)n2c1	inconclusive: 17.8 µM [inhibitor, single point]	–
Cc1ccc(NC(=O)N2Cc3[nH]cnc3C[C@H]2c2nc(-c3ccc(Cl)cc3)no2)cc1	inconclusive: 15.8 µM [inhibitor, partial curve, poor fit]	–
COCc1ncc(C)n1CCNC(=O)c1cc(-c2cccc(Cl)c2)n[nH]1	inconclusive: 10 µM [inhibitor, single point]	–
CN(C(=O)[C@@H]1C[C@@H](c2ccc(F)cc2)N([S+](=O)([O-])c2ccccc2)C1)c1ccccc1	inconclusive: 12.6 µM [inhibitor, partial curve, poor fit]	–
Cc1ccc(OCC(=O)NCCC2CCN(C(=O)Nc3cc(F)cc(F)c3)CC2)cc1	inconclusive: 1.78 µM [inhibitor, single point]	–
CCN(CC)Cc1nc(C2(O)CCN(C(=O)CCc3ccccc3)CC2)cs1	inconclusive: 15.8 µM [inhibitor, single point]	–
N#Cc1ccc(CN2CCc3nc(C(=O)Nc4cccc(C(F)(F)F)c4)oc3CC2)cc1	inconclusive: 1.12 µM [inhibitor, full curve, poor fit]	–
Cc1noc(-c2cccc(OC3CN(S(=O)(=O)c4c(C)nn(C)c4C)C3)c2)n1	–	inactive: 45% [at 5.79 µM]
O=C(NC1CCCCC1)[C@H]1CN2CCC1C[C@@H]2Cn1cc(COc2ccccc2)nn1 (some centres undefined)	inactive	–
CC1=C(C(=O)OC2CCCCCC2)C(c2ccc(Cl)cc2)CC(=O)N1 (centres undefined)	inconclusive: 17.8 µM [inhibitor, single point]	–
Cc1cc(C)c(NC(=O)Cc2ccc(-n3c(C)nc4cccnc43)cc2)c(C)c1	inconclusive: 17.8 µM [inhibitor, partial curve, poor fit]	–
CCOc1cc(C2C(C(=O)OC)=C(C)NC3=C2C(=O)c2ccccc23)cc(Br)c1OCC (centres undefined)	inconclusive: 10 µM [inhibitor, single point]	–
O=C(CCc1ccccc1)N1CCOc2ccc(CN3CCc4ccccc4C3)cc2C1	inconclusive: 2.24 µM [inhibitor, partial curve, poor fit]	–
Cc1noc(C)c1CN1CCC(NC(=O)C2CCC2)CC1	inactive	–
COc1ccc2c(c1)c(=O)c(C(=O)c1ccc(Cl)cc1)cn2CC(=O)Nc1ccc2c(c1)OCCO2	active: 11.2 µM	–
Cc1oc2ccc(O)c(CN3CCCC(C)C3)c2c1C(=O)Nc1ccccc1 (centres undefined)	active: 0.891 µM	–
COc1cccc(-c2cc(C(=O)NCCC(C)n3ccnc3)[nH]n2)c1 (centres undefined)	inconclusive: 20 µM [inhibitor, single point]	–
COc1ccc(CNC(=O)c2ccc(-c3nc(CS(=O)c4ccc(C)cc4)c(C)o3)cc2)cc1 (centres undefined)	inconclusive: 11.2 µM [inhibitor, partial curve]	–
Cc1ccc2c(n1)N(C)[C@H](CO)CCN(Cc1ccc(OC(F)(F)F)cc1)C2	inconclusive: 12.6 µM [inhibitor, single point]	–
Cc1ccc(C(=O)N2CCN(C(=O)c3nnn4c3COC(c3ccccc3)C4)CC2)s1 (centres undefined)	inactive	–

Compound	Potency	activity, negative = inhibition
C=C[C@H]1CN2CC[C@H]1C[C@@H]2CNC(=O)c1cccnc1SC	inconclusive: 11.2 µM [inhibitor, partial curve]	–
CC(C)c1cccc(NC(=O)Cn2nc3n(c2=O)CCCCC3)c1	inactive	–
CC(=O)NC1CC2(CCN(C(=O)c3ccccc3)CC2)c2ccccc21 (centres undefined)	inactive	–
Cc1noc(C)c1-c1cc(-c2ccncc2)cn2cncc12	inactive	–
COc1ccc(Cn2c(CCC(=O)Nc3ccccc3OC)nc3cccnc32)cc1	inconclusive: 10 µM [inhibitor, partial curve, poor fit]	–
CCC(CC)C(=O)Nc1ccc([C@H]2OCC(=O)N(C)[C@@H]2CO)cc1	inactive	–
CCCCS(=O)(=O)N[C@H]1CN(Cc2c(C)noc2C)C[C@@H]1C(C)C	inactive	–
CCn1cc(-c2cc3c(cn2)CN(CCc2ccccc2)CCN3)cn1	inconclusive: 2.24 µM [inhibitor, full curve]	–
Cc1cnn(CCC(=O)N2CCC(Oc3ccccc3)(C(=O)O)CC2)c1	inactive	–
COCCNC(=O)CCCN1C(=O)COc2ccc(C(=O)COc3cc(C)cc(C)c3)cc21	inconclusive: 2 µM [inhibitor, single point]	–
O=C1CCCN1CCCN1C(=O)[C@H]2CN(Cc3ccc(F)cc3Cl)C[C@H]2C1=O	inconclusive: 4.47 µM [inhibitor, partial curve, poor fit]	–
CC(=O)c1cc(CN2CCCCC(N)C2)cs1 (centres undefined)	inconclusive: 11.2 µM [inhibitor, single point]	–
Cc1ccc2oc(C(=O)Nc3ccc(S(=O)(=O)Nc4nc(C)cc(C)n4)cc3)cc(=O)c2c1	inactive	–
Cn1nc(C2CCCCC2)cc1[C@H]1CN2CC[C@H]1C[C@@H]2CN	inconclusive: 1 µM [inhibitor, partial curve, poor fit]	–
Fc1ccc(-c2cnc3n[nH]c(-c4ccccc4)c3n2)cc1	inconclusive: 25.1 µM [inhibitor, single point]	–
COCCn1c(=O)n([C@H]2CCCN(C(=O)c3cc4ccccc4[nH]3)C2)c2ncccc21	inconclusive: 10 µM [inhibitor, single point]	–
CCN(CC)CCNC(=O)c1ccc2c(=O)n3nc(Nc4ccccc4)sc3nc2c1	inconclusive: 12.6 µM [inhibitor, single point]	–
O=C(Cn1ccn2nc(-c3ccccc3)c(CO)c2c1=O)Nc1ccccc1	inactive	–
CC1=C(C(=O)Nc2cccc(C(F)(F)F)c2)C2(CCN(C(C)C)CC2)OC1=O	inconclusive: 10 µM [inhibitor, single point]	–
COc1ccc(-c2[nH]nc3ncc(-c4ccc(C)cc4)nc23)cc1F	active: 12.6 µM	–
CC(C)C(=O)N1Cc2ccccc2CC2(CCCN2CC2CCOCC2)C1 (centres undefined)	inconclusive: 10 µM [inhibitor, partial curve, poor fit]	–
O=C(c1ccncc1)N1CC2CCC(C1)N2Cc1ccc(-c2ccccc2)cc1	inconclusive: 17.8 µM [inhibitor, single point]	–

Compound	Potency	activity, negative = inhibition
Cc1ccc(CNC(=O)C2CCCN(Cc3nc(-c4cccc(C)c4)oc3C)C2)cc1 (centres undefined)	inconclusive: 14.1 µM [inhibitor, partial curve, poor fit]	–
CC(C)NC(=O)N1CNC(=O)C12CCN(C(=O)c1ccccc1)CC2	inactive	–
O=c1cc(-c2cccnc2)oc2c(-c3ccccc3Oc3ccccc3)nccc12	inconclusive: 0.794 µM [inhibitor, full curve]	–
Cn1c2c(c3ccccc31)CN(C(=O)c1ccccc1)CC2	inactive	–
Cc1cccc(C(=O)N2CCC3(CC2)CC(N(Cc2ccc(F)cc2)C2CC2)CCO3)c1 (centres undefined)	inconclusive: 14.1 µM [inhibitor, partial curve, poor fit]	–
CC(C)c1nc(C2Cc3ccccc3N2C(=O)NCc2ccco2)no1 (centres undefined)	inactive	–
O=C(Nc1ccc(Cl)cc1)C1CCN(C(=O)c2ncn3c2COC(c2ccccc2)C3)CC1 (centres undefined)	inconclusive: 17.8 µM [inhibitor, single point]	–
Cc1ccccc1-c1cnc2[nH]cc(CC(=O)NCCN(C)C)c2c1	inconclusive: 12.6 µM [inhibitor, single point]	–
COCCNC(=O)c1ccc2c(c1)OCCN(c1ccccc1)C2	inconclusive: 11.2 µM [inhibitor, single point]	–
CN1C(=O)C2(CCN([S+](=O)([O-])c3cccs3)C2)c2ccccc21 (centres undefined)	inconclusive: 6.31 µM [inhibitor, partial curve, poor fit]	–
Cc1ccc(S(=O)(=O)N2CC[C@H](c3n[nH]c(C)n3)[C@H](NC(=O)CN(C)C)C2)cc1	inactive	–
COc1ccc(CC(=O)N2Cc3[nH]cnc3C[C@H]2c2nc(-c3ccc4ccccc4c3)no2)cc1	inconclusive: 12.6 µM [inhibitor, single point]	–
COc1ccc(-c2nc3c(c(-c4ccccc4)n2)CN(C(=O)c2ccc(F)cc2)CC3)cc1	inconclusive: 10 µM [inhibitor, single point]	–
O=C(Nc1ccc(S(=O)(=O)N(Cc2ccccc2)c2ccccc2)cc1)c1ccc(F)cc1	inactive	–
COc1ccc(-n2nc(C3CCCN(C(=O)c4ccccc4)C3)[nH]c2=O)cc1 (centres undefined)	active: 11.2 µM	–
O=c1c2c(n(Cc3cccnc3)n1CCc1ccccc1)CN(Cc1ccc3c(c1)CCO3)CC2	inconclusive: 10 µM [inhibitor, single point]	–
O=C(Nc1ccccc1)[C@H]1CN2CC[C@H]1C[C@@H]2Cn1cc(CC2CCCCC2)nn1	inconclusive: 15.8 µM [inhibitor, single point]	–
O=C1CCCCC(Cc2cccnc2)(C(=O)NCCc2c[nH]c3ccccc23)N1 (centres undefined)	inconclusive: 12.6 µM [inhibitor, single point]	–
Cc1cnc(CCNC(=O)c2n[nH]c3ccccc23)n1C1CCCC1	active: 3.16 µM	–
COCc1nc(C2CC(NC(=O)c3nn(C)c4c3CCCC4)C2)cc(=O)[nH]1 (centres undefined)	inconclusive: 3.55 µM [inhibitor, partial curve, poor fit]	–
